Data as given in PubChem BioAssay AID493208 (National Center for Advancing Translational Sciences (NCATS), 2011).
Hit rate of the full screen: of about 44,000 compounds, about 340 (0.77%) were called active. Roughly 5% stayed inconclusive and do not appear here. Calls come from the whole dose curve; as a rule, active = well fitted inhibition curve with a large enough effect; inconclusive = small, poorly fitted or top-dose-only effect; inactive = flat fitted curve, though single readings scatter. Some of the results follow.

Experiment: Acumen qHTS Assay for Inhibitors of the mTORC1 Signaling Pathway in MEF (Tsc2-/-, p53-/-) Cells: Sytravon;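 note: plate controls were DMSO for no effect and rapamycin for full effect; nearly all actives have a fitted effect of over 50% in size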
Settings: phospho-rpS6 immunofluorescence/PI, 24 h; series mostly up to 38.3 µM; activity change, negative = inhibition: at the top concentration
Summary of the method: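 Cell-based qHTS: Tsc2-/- p53-/- MEF, 24 h cpd, 37 °C; fix/perm, anti-phospho-S6 Alexa-488 + PI; Acumen 488 nm scan; pS6/PI ratio, % positive cells; rapamycin 7.5 nM = inhibition ref; PI count = viability.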

Activity change, negative = inhibition, inactive:
Cc1ccc(-c2c3c(=O)n(C)c(=O)n(C)c3c3cnc4ccccc4n23)cc1 -7.43%
Cc1ccc(S(=O)(=O)CC(=O)Nc2nc3c(C)cccc3s2)cc1 0.594%
CSc1ccc(/C=C/c2nc3ccccc3n2S(=O)(=O)c2ccc(Br)cc2)cc1 -18%
Cc1ccc(N2CCN(Cc3nnc(-c4ccccc4F)o3)CC2)c(C)c1 -8.48%
CCOC(=O)c1c(C)[nH]c(C)c1S(=O)(=O)N1CCCC(C(=O)Nc2cccc(CC)c2)C1 (stereo unspecified) 0%
CCOc1ccc(NC(=O)CCc2c(C)nc3nc(-c4cc(OC)cc(OC)c4)nn3c2C)cc1 -8.73%
COc1cccc(NC(=O)/C(C#N)=C/c2c(C)n(Cc3ccccc3)c3ccccc23)c1 2.25%
CC(=O)N1CCc2cc(Br)cc(S(=O)(=O)NCCc3cccc(C)c3)c21 -0.281%
Fc1ccc(C(NCCc2ccc(Cl)cc2)c2nnc(-c3ccccc3Cl)o2)cc1 (stereo unspecified) 2.5%
O=C(Nc1ccc(Cl)c(C(F)(F)F)c1)c1nc2ccccc2nc1N1CCCCC1 -6.04%
COc1ccc(-n2nnc(-c3nsc(NC(=O)c4cccc(C)c4)n3)c2C)cc1OC -5.47%
COc1ccc(-c2[nH]c3c(c2-c2c(-n4cccc4)n(C)c(=O)[nH]c2=O)c(=O)[nH]c(=O)n3C)cc1F -4.69%
COc1cccc(NC(=O)Cn2nnc(C(=O)NCc3ccc4c(c3)OCO4)c2N)c1 -13.1%
CCN1CCN(c2ncc3c(n2)CCN(Cc2cccc(F)c2F)C3)CC1 9.51%
COC(=O)c1ccccc1NC(=O)c1nn(C)c2c1COc1ccccc1-2 -1.23%
Cc1cccn2c(=O)c3cc(C#N)c(=O)n(-c4nnc(SCc5ccc(F)cc5)s4)c3nc12 -4.69%
Cc1cc(C)c(NC(=O)CSc2nc(=O)n(Cc3cccnc3)c3c2CCC3)c(C)c1 0.194%
COc1ccccc1Nc1ncc2c(n1)CCN(Cc1cc(F)cc(F)c1)C2 9.1%
N#C/C(=C/c1ccccc1Cl)c1nc2ccccc2c(=O)[nH]1 -3.84%
CCCCCCNC(=O)c1c[nH]c2ccc(S(=O)(=O)N(C)c3ccc(C(C)C)cc3)cc2c1=O 9.57%
COc1ccc(N2CCN(C3(c4ccccc4)C(=O)c4ccccc4C3=O)CC2)cc1 1.54%
Cc1ccc(Cn2c(CO)cnc2SCC(=O)NCc2ccccc2Cl)cc1 -4.59%
Cc1ccc(Cl)cc1N(C)C(=O)c1cc2c(Cl)nc3ccccc3c2s1 -9.8%
O=C(C1CCC(Cn2c(=O)c3sccc3n(Cc3cccc(F)c3)c2=O)CC1)N1CCOCC1 (stereo unspecified) -1.22%
Cc1cc2nn(-c3ccc(F)cc3)nc2cc1NC(=O)c1cccc([N+](=O)[O-])c1C 3.88%
COc1cccc(OC(=O)CSc2nnc(-c3cccs3)o2)c1 -1.68%
CC(=O)Nc1ccc(Nc2nc3c(S(=O)(=O)c4cc(C)ccc4C)nnn3c3ccsc23)cc1 -2.36%
COc1ccc(N2C(=O)CSC23C(=O)N(CC(=O)Nc2ccccc2F)c2ccccc23)cc1 (stereo unspecified) 0.16%
COC(=O)c1ccc(Nc2nc(-c3ccccc3Cl)nc3ccccc23)cc1 4.39%
Clc1cccc(-c2nc3ccccn3c2Nc2ccc3c(c2)OCCO3)c1 -3.08%
Cc1cccc(C(=O)Nc2cc3nn(-c4ccc(C(C)C)cc4)nc3cc2C)c1 -10.6%
Cc1cc(OC(C)C(=O)N2CCC(c3nc4ccccc4o3)CC2)ccc1Cl (stereo unspecified) -0.201%
COc1cccc(CNC(=O)Cn2nc(-c3ccc(C)cc3)ccc2=O)c1 8.29%
Cc1ccc(CSCCNC(=O)C2CCN(S(=O)(=O)Cc3ccccc3)CC2)cc1 0%
CCn1ccc2cc(S(=O)(=O)N3CCCN(C(=O)Nc4cccc(SC)c4)CC3)ccc21 0.419%
CCCNC(=O)C1CCN(C(=O)N2CC(C)Oc3ccccc32)CC1 (stereo unspecified) 3.12%
COc1ccc(-n2ccnc2SCC(=O)Nc2cccc(OC)c2)cc1 -19.2%
Cc1ccc(CNC(=O)C2CCC(CNS(=O)(=O)c3ccc(C)cc3)CC2)cc1 (stereo unspecified) -4.19%
CCCCN(C)S(=O)(=O)c1ccc(NC2=NS(=O)(=O)c3ccccc32)cc1 -4.28%
Cc1ccc(NC(=O)Cn2cc(C(=O)c3ccco3)c3ccccc32)cc1C 0.206%
Cc1ccc(-n2nc3c(N4CCC(C(=O)NC5CCCCC5)CC4)nnc(C)c3c2C)cc1 -8.26%
Cc1cc2oc(C(=O)Nc3ccc(S(=O)(=O)N4CCC(C)CC4)cc3)cc(=O)c2cc1C -12%
COc1ccc(-c2ccc(CNCCCSc3nnnn3C)o2)cc1Cl 0.315%
CC(C)Cc1ccc(S(=O)(=O)NCc2nc3cccnc3n2Cc2ccccc2)cc1 -7.78%
COc1ccc(-n2ncc(C(=O)N3CCN(C(=O)c4ccco4)CC3)c2C2CCN(C(=O)OC(C)(C)C)CC2)cc1 5.77%
Cc1ccc(/C=C/C(=O)N2CCC(c3nc4ccccc4o3)CC2)cc1 1.51%
COc1ccc(NC(=O)c2c(NCc3ccc(OC)c(OC)c3OC)sc3c2CCC3)c(OC)c1 -1.65%
Cc1ccc(N(C)S(=O)(=O)c2ccc(-c3coc(C)n3)cc2)cc1 -9.95%
Cc1cccc(-c2noc(-c3ccc(NCc4ccccc4)c([N+](=O)[O-])c3)n2)c1 -10.8%
CC1=C(c2ccc(C)c(C)c2)S(=O)(=O)N=C1N1CCC(C(=O)NCc2ccccc2C)CC1 -0.756%
COc1ccccc1N1CCN(CCCNC(=O)c2nnc(Cc3ccc(F)cc3Cl)o2)CC1 -9.25%
Cc1ccc(NC(=O)CN2C(=O)COc3ccc(S(=O)(=O)N4CCOCC4)cc32)cc1N(C)C -4.48%
CC1=C(C(N)=O)C(c2cccc(Br)c2)n2nc(SCc3ccccc3Cl)nc2N1 (stereo unspecified) -1.11%
CCc1nc2ccc(C(=O)N3CCN(c4cc(C)ccc4C)CC3)cc2nc1CC -10.8%
Cc1cc(C)c2oc(-c3ccc(NC(=O)COc4ccccc4C)cc3)nc2c1 -25.7%
CCOc1ccc(CCNC(=O)c2cc3sccc3n2CC)cc1OCC -0.391%
Fc1ccc(CSc2nncn3c2cc2occc23)c(Cl)c1 -4.33%
COc1cc(C2C(C(=O)Nc3ccc(Cl)cc3)=C(C)Nc3nc(SC)nn32)cc(OC)c1OC (stereo unspecified) 1.4%
Cc1nn(CC(=O)NCCc2ccccc2)c(=O)c2nn(-c3ccccc3)c(C)c12 -3.43%
COC(=O)c1nnn(CC(=O)Nc2c(C)cccc2C)c1N -0.487%
COc1cc(CN(C(=O)Nc2cccc(Cl)c2)c2ccccn2)cc(OC)c1OC -3.01%
